From PubChem BioAssay AID1345082 (National Center for Advancing Translational Sciences (NCATS), 2018)
Hit rate of the full screen: of about 94,000 compounds, about 4,000 (4.3%) were called active. The inconclusive results got no clear call from the source; some entries with a clear call stand among them for comparison. The call rests on the fitted dose curve; in most records, active means well fitted inhibition curve with a large enough effect; inconclusive means small, poorly fitted or top-dose-only effect; inactive means no such curve, though single readings can be large or run the other way. Potencies beside an inconclusive call are fits to weak or partial responses and may not hold up.

test: Cytotoxic Profiling in NIH 3T3 Cell Line of Diverse Libraries Using Quantitative High-Throughput Screening; conditions: NIH 3T3 viability, CellTiter-Glo ATP luminescence, 48-72 h; activity change, negative = cytotoxicity: at 96.7 µM (top of the series); series mostly up to 96.7 µM; further: nearly all actives have a fitted effect of over 55% in size
Procedure, shortened: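 Mouse fibroblast NIH 3T3 cells, 400 per well, received compound via pintool and were incubated for 48 or 72 hr prior to CellTiter-Glo ATP luminescence measurement.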
On the % scale 0 is the no-effect control and ±100 the full control effect; potency means the concentration at half of the fitted maximal effect; tags describe the fitted curve by direction and shape.

| Structure (SMILES) | activity change, negative = cytotoxicity | Potency | outcome |
| --- | --- | --- | --- |
| O=C(Cc1ccccn1)N1CCCC(C(=O)N2CCC(N3CCOCC3=O)CC2)C1 (configuration not stated) | inactive: -7.82% | – | – |
| O=C(NC1CC1)c1ccc2c(c1)CC(=O)N2Cc1ccc(F)cc1 | – | inconclusive: 25.1 µM [inhibitor, full curve, poor fit] | – |
| COC[C@@H]1[C@H](C(=O)NCCn2ccnc2C)CCCN1Cc1ccccc1 | inactive: -5.09% | – | – |
| O=C(CCC[C@H]1NC[C@@H]2C[C@H]1CN(Cc1ccccc1)C2)NCC1CCCCC1 | – | inconclusive: 70.8 µM [inhibitor, partial curve, poor fit] | – |
| Cc1cccc(-c2ccc3c(c2)C(=O)N2CC[C@H](NC(=O)NC(C)C)[C@H]2C(=O)N3)c1C | – | inconclusive: 100 µM [inhibitor, partial curve, poor fit] | – |
| COC(=O)N1CCN(C(=O)c2nc3cccnc3n(-c3ccccc3OC)c2=O)CC1 | – | – | inactive |
| COc1ccccc1-c1cc(C(=O)NC2CCCCCC2)nn2cnnc12 | – | inconclusive: 50.1 µM [inhibitor, partial curve, poor fit] | – |
| Clc1cccc(-c2cnc([C@@H]3COCCN3Cc3cnc4ccccc4c3)[nH]2)c1 | – | active: 79.4 µM | – |
| COc1ccccc1CCC(=O)N1CCC2(CC1)N=C(c1cccc(Br)c1)NO2 | – | inconclusive: 70.8 µM [inhibitor, single point] | – |
| COc1cccc(-c2cccc(C(=O)N3CCCC3C(=O)NC3CCCC3)c2)c1 (configuration not stated) | inactive: -22% | – | – |
| O=C(C1CCCN(Cc2cccc(-c3cccs3)c2)C1)N1CCOCC1 (configuration not stated) | inactive: -23.7% | – | – |
| Fc1cccc(Nc2cnc3ccc(-c4ccccc4)nn23)c1 | – | inconclusive: 56.2 µM [inhibitor, partial curve, poor fit] | – |
| CC1(CNCc2ccccc2)COc2ccc(C(=O)Nc3cccnc3)cc2N1 (configuration not stated) | – | inconclusive: 89.1 µM [inhibitor, partial curve] | – |
| Cc1cccc(-c2ncc(CN(CCC(N)=O)Cc3ccccc3)cn2)c1 | – | inconclusive: 44.7 µM [inhibitor, partial curve, poor fit] | – |
| CNC(=O)COC1CN(C(=O)c2ccc(C)cc2)CCC(=O)N(C)c2ccccc21 (configuration not stated) | – | inconclusive: 25.1 µM [inhibitor, partial curve, poor fit] | – |
| COc1ccc(CNC(=O)C2CCCCN2Cc2ccc(-c3ccsc3)cc2)cc1OC (configuration not stated) | – | inconclusive: 25.1 µM [inhibitor, full curve, poor fit] | – |
| Cc1nc(N2CCN(C(=O)Cc3ccc(Cl)cc3)CC2)cc(C(F)(F)F)n1 | – | inconclusive: 28.2 µM [inhibitor, partial curve] | – |
| O=C(c1cccc(Cl)c1)N1CCCC(C(=O)N2CCCC(c3nc4ccncc4[nH]3)C2)C1 (configuration not stated) | inactive: -15.2% | – | – |
| Cc1nc2c(c(-c3ccc(O)cc3)n1)CN(Cc1cncs1)CCC2 | inactive: 4.02% | – | – |
| Cc1ccc(-c2noc([C@@H]3C[C@H](NS(=O)(=O)c4ccc(C)cc4)CN3C)n2)cc1 | – | active: 89.1 µM | – |
| C=CCN1Cc2cc(F)ccc2N(CC(O)COc2ccc(OC)cc2)CCC1=O (configuration not stated) | – | inconclusive: 44.7 µM [inhibitor, partial curve, poor fit] | – |
| O=C(NCc1ccco1)c1cc(-c2ccccc2F)cc2c1OCCN2Cc1cccnc1 | – | inconclusive: 15.8 µM [inhibitor, full curve] | – |
| Cc1nnc(-c2cc(-c3cccc(F)c3)ccn2)n1CCN1CCOCC1 | – | active: 22.4 µM | – |

| Structure (SMILES) | activity change, negative = cytotoxicity | Potency | outcome |
| --- | --- | --- | --- |
| CC1CCN(CCNC(=O)c2cc3cn(C(C)C)cc3s2)CC1 | inactive: 0.151% | – | – |
| COc1cccc(CN2CCc3c(cc(C(=O)Nc4cc(C)ccc4C)n3C)C2)c1 | – | inconclusive: 44.7 µM [inhibitor, partial curve, poor fit] | – |
| CN1CC(C(=O)NCc2cccs2)NC1=O (configuration not stated) | inactive: -13% [at 138 µM] | – | – |
| Cc1ccc(-c2cc(C(=O)N3CCC(c4nc(C5CCOCC5)no4)C3)c3ccccc3n2)cc1C (configuration not stated) | – | inconclusive: 20 µM [inhibitor, full curve, poor fit] | – |
| COc1ccccc1C(=O)N1CCCC2(C1)C(=NC1CCCCC1)NC(=O)N2c1cc(F)cc(F)c1 (configuration not stated) | – | inconclusive: 10 µM [inhibitor, partial curve, poor fit] | – |
| COc1ccc(-c2ccc(C(=O)N3CCCC3)c(Cl)c2)nn1 | – | active: 31.6 µM | – |
| CC(C)OCCCNC(=O)C1Cn2cccc2C(=O)N1C (configuration not stated) | inactive: -7.69% | – | – |
| NC(=O)c1cccnc1OC1CCN(C(=O)c2cccs2)C1 (configuration not stated) | inactive: -9.89% | – | – |
| O=C(COc1ccccc1)N1CCC2(CC1)SCC(=O)N2c1ccc(Cl)cc1 | – | inconclusive: 12.6 µM [inhibitor, partial curve, poor fit] | – |
| COc1ccc(C(=O)N2CCCC2c2nc(CCOc3cccc(C)c3)no2)cn1 (configuration not stated) | inactive: -22.7% | – | – |
| O=C(NCC(F)(F)F)c1cn2cc(-c3ccccc3)sc2n1 | – | active: 89.1 µM | – |
| Cc1ccc(-c2[nH]ncc2CN2C[C@@H](CO)[C@H](NC(=O)C3CC3)C2)cc1 | – | – | inactive |
| COc1ccc(N2Cc3c(NCCc4ccc(F)cc4)ncnc3N(C)CC2=O)cc1 | – | inconclusive: 50.1 µM [inhibitor, partial curve, poor fit] | – |
| c1ccc(-c2cc(NCCCOc3cccnc3)n3nccc3n2)cc1 | inactive: -22.2% | – | – |
| O=C(c1cc(C2CC2)nc2onc(C3CCNCC3)c12)N1CCOCC1 | – | inconclusive: 70.8 µM [inhibitor, single point] | – |
| Cc1nc(C)c(CC(=O)N(Cc2ccccc2)Cc2scnc2C)s1 | – | inconclusive: 79.4 µM [inhibitor, single point] | – |
| COc1cc(NC(=O)c2cc3c(N4CCSCC4)nc(C)cn3n2)cc(OC)c1OC | – | inconclusive: 50.1 µM [inhibitor, partial curve, poor fit] | – |
| COCCCNC(=O)C(C)(C)Oc1nn(Cc2cccc(Cl)c2)c2ccccc12 | – | inconclusive: 63.1 µM [inhibitor, partial curve, poor fit] | – |
| COc1cccc(-c2ccc(CN3CCN(c4ccc(Cl)nn4)C(=O)C3)cc2)c1 | – | inconclusive: 39.8 µM [inhibitor, partial curve] | – |
| O=C1COc2ccc(-c3cccc(O)c3)nc2CN1Cc1ccc(C(F)(F)F)cc1 | – | inconclusive: 79.4 µM [inhibitor, partial curve, poor fit] | – |
| O=C(NCc1cccc(Cl)c1)c1cc(-c2ccsc2)c2nncn2n1 | inactive: -1.42% | – | – |
| COc1ccc2cc1Nc1ccc(cc1)C[C@H](NCc1cccc(O)c1)C(=O)N(C)[C@@H](C(=O)Nc1ccccc1)C2 | – | inconclusive: 31.6 µM [inhibitor, full curve] | – |
| O=C(COc1ccc(F)cc1)N1CCCN(c2cc(-c3ccc(Br)cc3)[nH]n2)CC1 | – | inconclusive: 35.5 µM [inhibitor, partial curve, poor fit] | – |

| Structure (SMILES) | activity change, negative = cytotoxicity | Potency | outcome |
| --- | --- | --- | --- |
| CC(=O)Nc1ccc(NC(=O)CN2C(=O)NC(c3ccccc3Cl)C3=C2COC3=O)cc1 (configuration not stated) | inactive: -2.24% | – | – |
| COc1ccc(C(=O)N2CCCN(c3nccc(Nc4ccc(C)cc4)n3)C2)cc1 | – | inconclusive: 44.7 µM [inhibitor, partial curve, poor fit] | – |
| COC1CCN(C(=O)c2coc(COc3ccc(F)cc3Cl)n2)CC1 | – | inconclusive: 79.4 µM [inhibitor, single point] | – |
| CCCCNC(=O)C1CCN(C(=O)c2ncn3c2COC(c2ccc(OC)cc2)C3)CC1 (configuration not stated) | – | – | inactive |
| Cc1ccc(C(=O)N2CCCN(c3ccc4nnc(C)n4n3)CC2)cc1 | inactive: -23.6% | – | – |
| CN(C)C(=O)C(C)(C)Oc1nn(Cc2cccc(Cl)c2)c2ccccc12 | – | inconclusive: 56.2 µM [inhibitor, partial curve, poor fit] | – |
| COc1ccc(NC(=O)N[C@@H]2C=C[C@@H](c3c(C)nn(-c4ccccn4)c3C)C2)cc1 | – | active: 112 µM | – |
| N#Cc1cccc(-c2n[nH]c3c2CC(=O)N(Cc2ccccc2)C3)c1 | – | inconclusive: 112 µM [inhibitor, partial curve, poor fit] | – |
| CC(C)CNC(=O)c1nc2sccn2c1-c1cccc(C(F)(F)F)c1 | inactive: -32.2% | – | – |
| CCOc1ccc(C(=O)N2CCC(n3cc(-c4nc(CC)no4)nn3)C2)cc1 (configuration not stated) | – | inconclusive: 10 µM [inhibitor, full curve, poor fit] | – |
| CCN1CCC(N2CCCC(C(=O)NCc3ccccc3)CCNC(=O)CC2)CC1 (configuration not stated) | inactive: -0.734% | – | – |
| CN(c1ccccc1)c1ccc2nnc(-c3cc(C(=O)NCc4ccncc4)ccn3)n2n1 | – | inconclusive: 10 µM [inhibitor, full curve, poor fit] | – |
| COc1ccc(C(=O)N2CCC(Cc3nc(-c4ccncc4)n[nH]3)CC2)cc1 | – | inconclusive: 28.2 µM [inhibitor, partial curve, poor fit] | – |
| CCC(=O)N1CCc2c(sc3ncnc(N(C)Cc4ccccc4)c23)C1 | – | inconclusive: 44.7 µM [inhibitor, partial curve, poor fit] | – |
| O=C(Nc1ccc2c(N3CCCC3)ncnc2c1)c1ccccc1Cl | – | active: 25.1 µM | – |
| O=C(COc1ccc(NC(=O)C2CC2)cn1)NCc1ccc(F)cc1F | inactive: -0.432% | – | – |
| CC1(C)C(=O)N(CC2CCOCC2)[C@H]2CN(Cc3ccccc3O)C[C@H]2[S+]1(=O)[O-] | – | inconclusive: 100 µM [inhibitor, partial curve, poor fit] | – |
| COc1ccc(C(=O)N2CCN(c3ccc4nnc(C)n4n3)CC2)cc1 | inactive: -28.1% | – | – |
| Cc1nc(CN2Cc3nc(-c4ccc(Cl)cc4)ccc3OCC2=O)cs1 | – | inconclusive: 79.4 µM [inhibitor, partial curve] | – |
| Cc1nc(C2(C)CCN(S(=O)(=O)c3c(C)c(C)cc(C)c3C)CC2)no1 | – | inconclusive: 39.8 µM [inhibitor, partial curve] | – |
| Cc1cccc(CC(=O)N2CCC(Cc3nc(C(C)C)no3)CC2)c1 | – | inconclusive: 10 µM [inhibitor, partial curve, poor fit] | – |
